Reference: article PMC12040169 (PLOS Biology, 2025)
The list shows a part of the results.

Test system: T1, C. trachomatis L2/434/Bu expressing GFP (CTL2-GFP)
T1 construct: L2/434/Bu GFP intracellular growth in HeLa cells
Design: species or system HeLa; C. trachomatis total inclusion area by high-content imaging, normalised to DMSO
Settings: total inclusion area; 28.5 h, 10 µM; inhibitor
Summary of the method: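 Host cell viability was gauged from Hoechst-stained nuclei counts, while chlamydial growth was taken from total inclusion area and inclusion number per well. Cells were fixed and imaged by high-content microscopy once bulk GFP and resorufin fluorescence had been measured.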

Structure (SMILES) | % of control remaining
COc1ccccc1N1CCN(CCCCNC(=O)c2ccc(Cl)cc2)CC1 [CBK074835] | 75.4747
CC(C)(C)OC(=O)N1CCN(Cc2nc(-c3ccccc3)no2)CC1 [CBK306465] | 57.7989
O=C1NC2(CCCCC2)C(=O)N1c1cccc(Cl)c1 [CBK287969] | 91.2601
O=C(OCc1ccc(Sc2ccc([N+](=O)[O-])cc2Cl)cc1)c1cnccn1 [CBK268037] | 102.215
Cc1cc(C)n(-c2nc3c(c(=O)[nH]c(=O)n3C)n2CCc2ccccc2)n1 [CBK087129] | 79.061
CC(NC(=O)C1(Cn2ccnc2)CC1)c1ccccc1-n1cccn1 (stereo not shown) [CBK307006] | 78.1138
NS(=O)(=O)c1cc(C(=O)O)ccc1F [CBK113180] | 103.299
COc1ncc(-c2cnc3[nH]c(=O)n(Cc4ccc(S(C)(=O)=O)cc4)c3n2)cn1 [CBK065053] | 101.515
CC(=O)NC1(c2ccc(F)cc2)CCN(CC(=O)NCC2CC2)CC1 [CBK283614] | 123.789
COc1ccc(OC)c(C(O)c2coc3ccc(O)c(CN(C)C)c23)c1 (stereo not shown) [CBK261314] | 86.5283
CC(C)(C)c1ccc(CNC(=O)C2CCCN2S(=O)(=O)c2ccc3ccccc3c2)cc1 (stereo not shown) [CBK265020] | 92.0477
Clc1cccc(CNc2cncc(-c3cccnc3)n2)c1 [CBK065283] | 61.207
CCN1CCN(c2ccc(C(=O)OC)cc2NC(=O)c2ccccc2Cl)CC1 [CBK270267] | 113.085
CN(C)CCNc1ccc(-c2n[nH]c(=O)c3ccccc23)cc1[N+](=O)[O-] [CBK266143] | 107.605
O=C(N/N=C/c1c(O)ccc2ccccc12)c1ccc(CO)nc1 [CBK261375] | 26.8902
Nc1ccc(-c2cc(F)cc(F)c2)c2ccccc12 [CBK084314] | 80.4589
CC(C)(C)c1ccccc1NC(=O)N(Cc1cc(F)cc(F)c1)CC1CCNCC1 [CBK049802] | 86.0811
CC(=O)Nc1ccc(CCOc2nccnc2-c2ccc(C)cc2C)cc1 [CBK106985] | 95.1487
O=C(c1ccoc1)N1CCC2(CCCN(Cc3ccc(OC(F)(F)F)cc3)C2)C1 (stereo not shown) [CBK132801] | 84.1868
COc1ccc(C(=O)Nc2ccccc2C(=O)NCCCC(=O)O)cc1 [CBK287024] | 106.819

Structure (SMILES) | % of control remaining
Cc1ccc(S(=O)(=O)NC(Cc2ccccc2)C(=O)O)cc1 (stereo not shown) [CBK217645] | 108.713
Cn1c(=O)c(-c2nc3ccccc3[nH]2)c(O)c2ccccc21 [CBK027678] | 81.7335
COc1ccc(-c2nc(NC(=O)Cc3ccccc3OC)cnc2-c2cccc(C)c2)cn1 [CBK036839] | 110.632
CC12CCC(CC1C(=O)NC1CC1)[C@]1(C2)NC(=O)c2ccccc2N1 (stereo partly shown) [CBK284445] | 89.5987
CC1=Nc2c(cnn2-c2ccccc2)C2=NCCCN12 [CBK287928] | 88.4508
Cn1c(=O)n(CC(=O)NCc2cccc(F)c2)c2cccnc21 [CBK283911] | 108.731
O=C(CCC(=O)c1ccccc1)Nc1ccccc1N1CCNCC1 [CBK028284T] | 93.8473
NC(=O)CN1CC2(CCN(CC(=O)Nc3ccc(F)c(Cl)c3)CC2)c2ccccc21 [CBK126790] | 78.0498
CCOc1ccc(C(=O)C2=C(O)C(=O)N(CCN3CCOCC3)C2c2ccc(N(C)C)cc2)c(C)c1 (stereo not shown) [CBK264650] | 93.6402
O=C(Nc1ccccc1-c1nc2ccccc2[nH]1)c1ccc2c(c1)OCCO2 [CBK293924] | 131.39
CCOC(=O)c1sc2ccc(NC(C)=O)cc2c1C [CBK021052] | 50.2654
Cc1nc(-c2ccccc2)c(CC(=O)NC2CCCOC2)s1 (stereo not shown) [CBK282586] | 87.0614
CCOc1ccc(-c2c(C3CC3)n[nH]c2N)cc1OCC [CBK288177] | 91.5202
O=C(Nc1cccc(C(F)(F)F)c1)N1CCN(CCCCc2ccc(F)cc2)CC1 [CBK013363C] | 47.9685
Cc1cc(=O)c2ccccc2n1CC(=O)N1CCNC(=O)C1C (stereo not shown) [CBK306511] | 82.5951
Cc1[nH]c(=O)[nH]c1C(=O)CCCCC(=O)O [CBK263197] | 90.7781
O=C(c1ccco1)N1C2CCC1CC(O)(c1cccnc1F)C2 (stereo not shown) [CBK284417] | 62.8768
Cc1csc(C(Cc2cccs2)NCC2CCOC2)n1 (stereo not shown) [CBK285051] | 96.3373
O=C(NCCSCc1ccco1)C1CCC1 [CBK057516] | 76.9734
CCN(CC)CCNC(=O)c1ccc(C(=O)O)c(C)n1 [CBK304248] | 38.156
